This is an account of results in the RNAGym collection of RNA variant scans (doi:10.7554/elife.90254).

Read counts are not given, so values of variants with three or more changes are uncertain.

B1: LINE1-full (parent)
chain: UACGUAGGUGGUUUUCCCCUGAUAGUGCUAAGGGGGCCUGGAAGUUUGGACUGGGCAGAGCUCAACACAGCGUGGCAAAGUGGCUGUGGCUAGACUGCCUCUCUGGAUUCCUCGUCACUCAGCAGGGCAUCUCUGAGAGAAAUGCC

Variants of B1 are the subject of the data set. As to the kind of experiment: self-cleavage, relative activity (ratio to wild type); higher = more cleavage; in vitro, sequencing; the parent is a self-cleaving ribozyme.
U12A C18U A43G C103U: the self-cleavage worked out at 0.77.
For the variant U9C G60A U62C U115A, the self-cleavage amounted to 0.04.
With C63U A65G A79G the figure was 0; with A31G U39C A78G, 1.06; with U14A A50G A65G C84U A140G, 0.06.
With U20C U81C U87A the figure was 0.08; with U91C U132A A140G, 0.66.
Take A30G A42G C76U: the self-cleavage was found to be 0.71.
Take A31U U52A A77G U87C U115C: the self-cleavage stood at 0.
In the case of U9A U20C A50U A77G, the self-cleavage was found to be 1.5.
C61A U87C A117G: the self-cleavage worked out at 0.06.
The value for A2C U20C U104C was 2.19.
As to U96C U134C G139A, the self-cleavage was 0.14.
Regarding U12C A65U U100C U115A, the self-cleavage was determined as 0.73.
The value for U26C A50G A59G was 0; that for C37G A77U G114U was 1.03; that for U1C A64U U112C U143C was 0.3.
U12A U46A U62C A69U U85C: the self-cleavage was determined as 0.16.
For A64U C68A A117G A138G, the self-cleavage came to 0.33.
As to U73A G105A U112C, the self-cleavage is 1.35.
The value for U20C A64G A140G was 0.15.
The value for U13C A22G G40A C71A A140G was 0.04; that for U9A U15C U29C A57G G72A was 1.31; that for G4A U85A G144A was 0.09.
For U9C A77U A140G, the self-cleavage came out at 1.88.
The value for C84U A107G U134A A138G was 0.15; that for U45C G55U U100C was 0.16.
A6G A77U A92U: the self-cleavage came to 0.87.
For A42G A77G U85C, the self-cleavage came to 0.
As to U14C U112C A141G, the self-cleavage stood at 1.27.
With U46A C61U A141G the figure was 0.04; with U9C U29C A43G U46C, 0.35.
For U52A A59G A65G, the self-cleavage turned out to be 0.
Consider U5C U87C U91G A129G, for which the self-cleavage is 0.
With U13A A31U U47C A136G A138G the figure was 0.34; with U1A U46A A64U A79G, 0.37.
As to A2G A124U A141G, the self-cleavage amounted to 0.47.
With A50G U102A G114A U130A A142G the figure was 1.18; with U14C U15C U62C, 0.21; with A57G C63A A64G, 0.
Regarding U1C U73A A141G, the self-cleavage was 0.71.
With A30G A31G G35A U39C A140U the figure was 0.95; with A43U U119A A141G, 2.87.
The value for A24U U62A A69G U100C A107G was 0.
With A77U G88A A124G the figure was 0.03; with G7U G33C C76U C120U, 1.29; with U1A U15C U109A U112A, 1.01.
For A43C C51U U96A, the self-cleavage was determined as 0.05.
The value for A6G U52A A67U A77G was 0.47; that for U13A U15A A64G was 0.07.
With U15C A117U A142G the figure was 2.15.
As for U112C A142C C145U, the self-cleavage stood at 1.04.
The value for U14C U91C U134C was 1.08; that for A6U U39C U52C was 0; that for U15A A129U U132C was 0.69.
With U5A A138U A140G the figure was 0.63.
As for G33A A50G A64U, the self-cleavage came to 0.49.
The value for U9C G127U U134A was 2.26; that for A2U U104A G127A was 0.24.
Turning to G44U U52A U81C U108C, the self-cleavage is 1.59.
With U12C U20G A42G U52A A141G the figure was 1.47.
The value for A67G A78G C90A was 0.05; that for U15C A59U U134A was 1.19; that for U12C A59G C101U was 0.07.
G48A A50U A69G U143C: the self-cleavage came out at 0.33.
The value for A31U A69U A117G was 0.05; that for A124C A140G A141G was 1.51; that for A94U A142G C146A was 0.31.
As to C56A A64G A79G U85C, the self-cleavage was determined as 0.03.
U15C G32A U134A: the self-cleavage was found to be 0.57.
For the variant A6G C37U A50G A78G U112C, the self-cleavage was found to be 1.17.
As to U62C A64G U100C, the self-cleavage stood at 0.2.
U13C A57G A65U: the self-cleavage was determined as 0.24.
Take A121G C128U A136G: the self-cleavage stood at 1.5.
For the variant U12G C71U A136U, the self-cleavage worked out at 1.09.
With U13C A31U A57U the figure was 0.05; with A6G U52A U134C, 0.98; with A22G A94G A140G, 0.18.
The value for A64G U108C G125A was 0.23.
For the variant A79U A94G A138G, the self-cleavage was determined as 0.23.
As for C68U U130C U143C C146A, the self-cleavage was found to be 0.3.
In the case of A24G U46C A59G U73A G122A, the self-cleavage is 0.29.
U9C U15A A79G U100C A138G: the self-cleavage stood at 0.
The value for A6G C90U A92G A129G was 0.1; that for A31U A107G A141G A142G was 0.
On to U15A A42G U81C, for which the self-cleavage turned out to be 1.36.
Turning to A6U U12C C38U A107U, the self-cleavage came to 0.9.
With U15C U62C C113U the figure was 0.01.
For the variant C3U A24U A57G A79G, the self-cleavage was 0.
C84U U102A U143C: the self-cleavage is 0.09.
As to U9C U14C U20C C37U, the self-cleavage came to 0.57.
U45C A64U A79G U109G: the self-cleavage worked out at 0.15.
With U5C G35A U47C U102C C103U the figure was 1.96.
Turning to A65G U96A U102A, the self-cleavage was 0.02.
The value for U1C U52C A69U A124G was 0.07; that for A24G U39C U62C A138G was 0.43; that for A59G U100C A138G was 0.19.
For U12A U46A G114A A121G, the self-cleavage stood at 1.31.
In the case of U14C A78U U100C C123U, the self-cleavage was 2.9.
Regarding A43G A69G A77G G86A, the self-cleavage came to 0.03.
The value for U112C A141G A142G was 0.84; that for A78G A129U A138G was 1.3.
The value for U13C U47A G58A A79G U109A U132C was 0.11; that for A42G U62A C123G was 0.09.
With U5C A6U A92U the figure was 0.61; with U15C U20C U85C C101A A136G A140U, 0.17.
With U12G U13A A50G A141G, the self-cleavage was 0.68.
With U13C U115C A124G the figure was 0.56; with A6G A43G A92G, 0.66; with U115A A124G A142G, 1.07.
The value for U12C C28A C37A was 0.49.
The value for G88C C128U U134C U143A was 0.05; that for A65G G72A U102C U112A was 0; that for A30G A64G U112A was 0.36.
Take U20A U134C U143A: the self-cleavage is 1.52.
With U14A U39A U45C G114A the figure was 1.29; with U39C U73C A124U, 0.42.
Take U13C U112C U115C: the self-cleavage came to 0.57.
For G36C U45C A117U, the self-cleavage amounted to 1.11.
For A57U U109G A138G, the self-cleavage came out at 0.
The value for U9A G35U U52C A117C A138G was 0; that for U13C A65G U130C was 0.18; that for U1C U5A G40A U62A A117G A129U A140G U143A G144A was 0.
With G7U U91C A117G the figure was 1.53; with U20C U26C G58A A69U G75A A79U U134A, 0.02.
U13C U20C A42G G114A U119C U132A: the self-cleavage is 2.38.
As for U15C C19U A42G, the self-cleavage was determined as 1.29.
As to U87C U96C A121U, the self-cleavage came to 0.07.
On to C38U U85A A94U U102C A129G A136G A140G, for which the self-cleavage was 0.
U15C U87A A140G A142G: the self-cleavage was 0.19.
For A30G U52C A77U, the self-cleavage came to 0.97.
With A42G U96C G114A the figure was 0.11; with U20C U100C A138G, 2.09; with A42G A43G U45G, 0.43.
As for U5A A92G A136G A140G, the self-cleavage is 0.2.
With A121U A124U U134A the figure was 1.41; with G58U A67G U132C, 0.03; with A50C U132A A141G, 1.42.
With G10A U14C C63U U104G A124U, the self-cleavage was found to be 0.26.
With U9A U102C U115C A140G the figure was 1.08; with U26C G32U U100C U112C C118U C133U G137A, 2; with U45C U52C G83A A136G, 1.48.
With U13C U130C U134C the figure was 1.17; with U87A A124U U143C, 0.12.
Turning to A2G C76U U96C U115A A141G, the self-cleavage turned out to be 0.18.
With A77U U112C A124G the figure was 0.67; with U47C U85C C95U U134A, 0.1; with U14A A77G A129G, 2.63.
With U47C U73C C118U the figure was 1.85; with U26G U73C U87C, 0; with U23C U52A A107G, 1.93.
On to U26A U119A G126U, for which the self-cleavage was found to be 0.99.
For the variant U20C U81C U143C, the self-cleavage was 1.18.
The value for U62C C95U U119C was 0.03.
For the variant A57G U73C C103A, the self-cleavage was determined as 0.
In the case of C37G A65U A78G U96A, the self-cleavage was 0.04.
With A43G U81A U112C A141G the figure was 2.16; with G80A A94G A129G, 0.08; with A31G C90G C101U A140U, 0.04.
With A6G U104A G125U C146U, the self-cleavage is 1.07.
The value for U12C A78G G114U was 1.37; that for U15C U46C A69G G82A A138G was 0.52; that for A2G A22G A78G was 1.07.
Take A69U U91C G126U A142G: the self-cleavage amounted to 0.13.
Consider U5C U13A U29C G72U A121U, for which the self-cleavage worked out at 0.97.
The value for U12C G41U G49A A117U was 1.55.
As for U15A A65U U100C A142G, the self-cleavage stood at 0.23.
